Reference: the RNAGym collection of RNA variant scans (doi:10.7554/elife.90254)
Read counts are not given, so values of variants with three or more changes are uncertain.

B1: LINE1-mini (parent)
chain: GGCAGAGCUCAACACAGCGUGGCAAAGUGGCUGUGGCUAGACUGCC

Variants of: B1
Assay: self-cleavage, relative activity (ratio to wild type); higher = more cleavage; in vitro, sequencing; the parent is a self-cleaving ribozyme

Variant | self-cleavage
G2C A26U U38G | 0.02
G2C C3A A4C C10U U20G | 0.09
G2C C3A A6C A12C A24C C42G | 0.01
G2C C3A A6U | 1.49
G2C C3A A11U U32G G35U | 0.07
G2C C3A A26C | 0.05
G2C C3A C31A | 0.05
G2C C3A G5U C10U A11C | 0
G2C C3A G7C C8G A39G C42U C45A | 0.01
G2C C3A G27U U28A G30C U43G | 0
G2C C3A G30U | 0.68
G2C C3A G36A G44U | 0.1
G2C C3A U28G | 0.09
G2C C3G C8U G27A A39C C45U | 0.04
G2C C3G C13G G17C G22A G27U C31U | 0.04
G2C C3G C15U G33U | 0.04
G2C C3G C45A | 0.06
G2C C3G G17C G27U G30U | 0.07
G2C C3G G22C A24G A26U | 0.09
G2C C3G G22U G33A | 0.08
G2C C3U A6C | 0.05
G2C C3U C13U A16U G36C C37A U43C G44U C45A | 0.02
G2C C3U C18A G36U | 0.07
G2C C3U G7C A14U A41G | 0.19

Variant | self-cleavage
G2C C3U G17U A26G | 0.08
G2C C3U U9G U28A | 0.04
G2C C8A C13A G35U C45A | 0.19
G2C C8A G22A A26C G36U | 0.17
G2C C8G C15A G17U | 0.07
G2C C8G G29U | 0.05
G2C C8G G33U G35A G40C C45U | 0.02
G2C C8G G36A C46A | 0.04
G2C C8G G40U A41G | 0.01
G2C C8U A11U U34G | 0.04
G2C C8U C18U G33U C42U C46U | 0.05
G2C C8U G29U G44C | 0.89
G2C C8U G30U C42U | 0.09
G2C C8U G40U | 0.32
G2C C10A A11C G22U G35A | 0.03
G2C C10A A14G C15A C18U G29U G30A C45G | 0.02
G2C C10A A14G G19A A25U G33U A39U | 0
G2C C10A A39U | 0.07
G2C C10A G35U G40U C42A | 0
G2C C10G G36A G44U | 0
G2C C10U A26U G30U | 0.06
G2C C10U U32G A41U | 0.01
G2C C10U U38A | 0.01
G2C C13A C18G A39U C45U | 0.13

Variant | self-cleavage
G2C C13A G17C A24U A26G C42A | 0.23
G2C C13A G22A G29C C37A C46A | 0.09
G2C C13G A16U | 0.11
G2C C13G C15A G17A | 0.02
G2C C13G C15G G22A G29C U32C G36C | 0
G2C C13G G19A C23G G35A C45U | 0.58
G2C C13G G35U | 0.04
G2C C13U A26G | 0.02
G2C C13U C15A G35C A41G G44U | 0.01
G2C C13U G27C G33A A39G C46U | 0.08
G2C C15A A26G | 0.03
G2C C15A C18G | 0.01
G2C C15A C46U | 0.04
G2C C15A G33U A41G | 0.07
G2C C15A U34G A39C G44U | 0.01
G2C C15G C31A | 0.02
G2C C15G G33U | 0.07
G2C C15G G35C A39C | 0.02
G2C C15G G44A | 0
G2C C15G G44U C46G | 0.01
G2C C15U C23U | 0.02
G2C C15U G27U G29U | 0.11
G2C C15U G29U G33A | 0.71
G2C C15U U32G G33C U34G C46A | 0.01

Variant | self-cleavage
G2C C18A G33U C45U | 0.01
G2C C18A U20C G29U | 0.38
G2C C18G C46G | 0.1
G2C C18G G19C U20C | 0.14
G2C C18G U20G C37U G40C C42U | 0.01
G2C C18U G27U A39U | 0.08
G2C C23A C37A G40U | 0.02
G2C C23A G29C A39C | 0.13
G2C C23A G30A G33A | 0.1
G2C C23A G30U G33U | 0.04
G2C C23G A25U G27U G29A C46U | 0.07
G2C C23G A26G G35C | 0.03
G2C C23G A39U | 0.09
G2C C23G C31U C37G A39G C42U | 0.02
G2C C23U A26G | 0.04
G2C C23U C45G C46U | 0.32
G2C C23U G33U G40C C42G | 0.03
G2C C31A G35A | 0.02
G2C C31G C37A | 0.02
G2C C42A U43A C46A | 0.01
G2C G5A C18A U20G G30A C42U | 0.01
G2C G5C A11C C13G G22U U28A | 0.01
G2C G5C C18A A25U C45A | 0.01
G2C G5C C18U | 0.01

Variant | self-cleavage
G2C G5U A6G C31U G40A C45U | 0.01
G2C G5U A11U C13A | 0.02
G2C G5U C8A A14C A24C | 0.1
G2C G5U C10A G21U | 0.04
G2C G5U G35U | 0.04
G2C G7A A12G U32A | 0.25
G2C G7A A16U C37A G44C C46U | 0.06
G2C G7A A24C A41U | 0.08
G2C G7A C8U A12U G35U | 0.03
G2C G7A G27C U38A | 0.02
G2C G7C A41C G44A C46U | 0.05
G2C G7C U20A C23A | 0.01
G2C G7U C42G | 0
G2C G7U C45G | 0.01
G2C G7U G27A G33U | 0.11
G2C G7U G36U | 0.03
G2C G17A C23U G36A | 0.03
G2C G17A G22U | 0.12
G2C G17A U43A | 0
G2C G17C G40U A41C | 0.66
G2C G17U G19A A26C | 0.36
G2C G17U G33A G35U G44U C45U | 0.29
G2C G19A G30A C31U U34A U38A U43C C45U | 0.04
G2C G19A G40U | 0.07

Variant | self-cleavage
G2C G19A U20G G21C | 0.08
G2C G19C C31G | 0.02
G2C G19U C31G | 0.07
G2C G19U G21A | 1.22
G2C G19U G33A | 0.14
G2C G21A C45A | 0.09
G2C G21A G29A | 0.08
G2C G21U A25G G33A | 0.04
G2C G21U C23A G27A C42U | 0.1
G2C G21U G30C G44A | 0.73
G2C G22A G29A C31A | 0.32
G2C G22C G30A | 0.29
G2C G22U A41U G44C C46U | 0.07
G2C G22U G27C G33U U34G G36A | 0.04
G2C G27A G36C | 0.2
G2C G27A G44C | 0.03
G2C G27C G36A | 0.22
G2C G27C U32A C42A | 0.01
G2C G29U G33C | 0.04
G2C G33U G35U | 0
G2C G33U G36C C37A A39G | 0.12
G2C G35C G40U | 0.32
G2C U9A C13U G30C | 0.09
G2C U9A G36A | 0.2

Variant | self-cleavage
G2C U9A U32G G35U | 0.03
G2C U9C A12C A26C G30U C31A | 0.05
G2C U9G A24U A39G C45G | 0.1
G2C U9G C15G C23U A41G | 0.1
G2C U9G C31U C46U | 0.03
G2C U9G U20G A39C A41C | 0.23
G2C U9G U28C | 0.1
G2C U20A A26G U34A G35U C45A C46U | 0
G2C U20A A26U G44A | 0.05
G2C U20A C23A | 0.12
G2C U20A C23U G35C U38G | 0.07
G2C U20C C23A A24C G27C G36U | 0.02
G2C U20G C23U | 0.12
G2C U32A G35C C45A | 0.01
G2C U32A U34C C46U | 0.06
G2C U32C C37U | 0.01
G2C U32C U38C | 0.04
G2C U32G G33A C37A C42U G44U | 0.05
G2C U34C G44U | 0.05
G2C U38A C46A | 0.04
G2U A4C A16U G21U | 0.06
G2U A4C C13U G35U | 0.05
G2U A4C C18A C45A | 0.02
